Some of the results follow.
Tests used:
HSkMC = human skeletal muscle cells; assay: cytotoxicity call (relative viability < 0.9); settings: 10 µM
HepG2 = assay: cytotoxicity call (relative viability < 0.9); settings: 10 µM
S. aureus RN4220 = assay: growth inhibition call (relative growth <= 0.2); settings: 50 µM

C[C@H]1CCCCO[C@H](CN(C)C(=O)Nc2ccc3c(c2)OCO3)[C@@H](C)CN([C@@H](C)CO)C(=O)c2cc(NC(=O)NC3CCCCC3)ccc2O1
inactive: cytotoxicity call (HSkMC) | cytotoxicity call (HepG2) | growth inhibition call (S. aureus RN4220)

CC(C)NC(=O)Nc1ccc2c(c1)C(=O)N([C@@H](C)CO)C[C@@H](C)[C@@H](CN(C)Cc1ccccc1)OCCCC[C@H](C)O2
inactive: cytotoxicity call (HSkMC) | cytotoxicity call (HepG2) | growth inhibition call (S. aureus RN4220)

C[C@@H](O)C[C@H]1CC[C@@H](O)[C@@H](C)C(=O)O[C@@H](C[C@@H](C)O)CC[C@@H](O)[C@@H](C)C(=O)O1
inactive: cytotoxicity call (HSkMC) | cytotoxicity call (HepG2) | growth inhibition call (S. aureus RN4220)

O=C(C[C@@H]1C[C@H]2c3cc(NC(=O)c4ccc5c(c4)OCO5)ccc3O[C@H]2[C@@H](CO)O1)NCCN1CCCCC1
inactive: cytotoxicity call (HSkMC) | cytotoxicity call (HepG2) | growth inhibition call (S. aureus RN4220)

CO[C@@H]1CN(C)C(=O)c2ccc(NC(=O)Nc3cccc(F)c3)cc2OC[C@@H](C)N(C(=O)Nc2c(C)noc2C)C[C@H]1C
inactive: cytotoxicity call (HSkMC) | cytotoxicity call (HepG2) | growth inhibition call (S. aureus RN4220)

O=C(NCO)c1cccnc1
inactive: cytotoxicity call (HSkMC) | cytotoxicity call (HepG2) | growth inhibition call (S. aureus RN4220)

Cc1ccc(S(=O)(=O)Nc2cccc3c2O[C@@H](CN(C)S(=O)(=O)c2cn(C)cn2)[C@@H](C)CN([C@H](C)CO)C3=O)cc1
inactive: cytotoxicity call (HSkMC) | cytotoxicity call (HepG2) | growth inhibition call (S. aureus RN4220)

C[C@H](CO)N1C[C@H](C)[C@@H](CN(C)Cc2ccc(C(=O)Nc3ccccc3N)cc2)Oc2ccc(NC(=O)Nc3ccc4c(c3)OCO4)cc2CC1=O
inactive: cytotoxicity call (HSkMC) | cytotoxicity call (HepG2) | growth inhibition call (S. aureus RN4220)

C[C@@H]1CN([C@@H](C)CO)C(=O)Cc2cc(NC(=O)CCN3CCOCC3)ccc2O[C@H]1CN(C)Cc1ccncc1
inactive: cytotoxicity call (HSkMC) | cytotoxicity call (HepG2) | growth inhibition call (S. aureus RN4220)

From the antibiotic and cytotoxicity screens of Wong et al. (2023)
